This is one part of the list.
Key:
Assay in all cases: glycan array binding signal (z-score within array); higher = stronger binding
Settings in all cases: glycan notation: IUPAC condensed, linker removed
[1] = biological target: Fuc(a1-2)[GalNAc(a1-3)]Gal(b1-3)GlcNAc(b1-3)GalNAc
Summary of the method: (§1)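 Glycan array data were curated from 3228 arrays in the Consortium for Functional Glycomics database and kept only where the protein sequence was available. Glycan names were converted to IUPAC-condensed notation, and columns mapping to the same glycan were averaged. The binding signal is a within-array Z-score, averaged across arrays of the same protein sequence at different concentrations or buffers and across linkers. Negative Z-scores can be read as non-binding.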

[2] = biological target: Fuc(a1-2)[GalNAc(a1-3)]Gal(b1-3)GlcNAc(b1-6)GalNAc
Summary of the method: as §1

[3] = biological target: Fuc(a1-2)[GalNAc(a1-3)]Gal(b1-4)Glc
Summary of the method: as §1

[4] = biological target: Fuc(a1-2)[GalNAc(a1-3)]Gal(b1-4)GlcNAc
Summary of the method: as §1

[5] = biological target: Fuc(a1-2)[GalNAc(a1-3)]Gal(b1-4)GlcNAc(b1-2)Man
Summary of the method: as §1

[6] = biological target: Fuc(a1-2)[GalNAc(a1-3)]Gal(b1-4)GlcNAc(b1-2)Man(a1-3)[Fuc(a1-2)[GalNAc(a1-3)]Gal(b1-4)GlcNAc(b1-2)Man(a1-6)]Man(b1-4)GlcNAc(b1-4)GlcNAc
Summary of the method: as §1

[7] = biological target: Fuc(a1-2)[GalNAc(a1-3)]Gal(b1-4)GlcNAc(b1-2)Man(a1-3)[Fuc(a1-2)[GalNAc(a1-3)]Gal(b1-4)GlcNAc(b1-2)Man(a1-6)]Man(b1-4)GlcNAc(b1-4)[Fuc(a1-6)]GlcNAc
Summary of the method: as §1

[8] = biological target: Fuc(a1-2)[GalNAc(a1-3)]Gal(b1-4)GlcNAc(b1-3)Gal(b1-4)GlcNAc
Summary of the method: as §1

[9] = biological target: Fuc(a1-2)[GalNAc(a1-3)]Gal(b1-4)GlcNAc(b1-3)Gal(b1-4)GlcNAc(b1-3)Gal(b1-4)GlcNAc
Summary of the method: as §1

[10] = biological target: Fuc(a1-2)[GalNAc(a1-3)]Gal(b1-4)GlcNAc(b1-3)GalNAc
Summary of the method: as §1

[11] = biological target: Fuc(a1-2)[GalNAc(a1-3)]Gal(b1-4)GlcNAc(b1-3)[Fuc(a1-2)[GalNAc(a1-3)]Gal(b1-4)GlcNAc(b1-6)]GalNAc
Summary of the method: as §1

[12] = biological target: Fuc(a1-2)[GalNAc(a1-3)]Gal(b1-4)GlcNAc(b1-6)GalNAc
Summary of the method: as §1

[13] = biological target: Fuc(a1-2)[GalNAc(a1-3)]Gal(b1-4)[Fuc(a1-3)]GlcNAc
Summary of the method: as §1

[14] = biological target: Fuc(a1-2)[GalNAc(a1-3)]Gal(b1-4)[Fuc(a1-3)]GlcNAc(b1-3)GalNAc
Summary of the method: as §1

[15] = biological target: Fuc(a1-2)[GalNAc(a1-4)]Gal(b1-4)GlcNAc
Summary of the method: as §1

[16] = biological target: Fuc(a1-2)[GalNAc(b1-3)]Gal
Summary of the method: as §1

Fuc(a1-3)GlcNAc = biological target: Fuc(a1-3)GlcNAc
Summary of the method: as §1

[17] = biological target: Fuc(a1-3)[Gal(b1-4)]Glc6S
Summary of the method: as §1

[18] = biological target: Fuc(a1-3)[Gal(b1-4)]GlcNAc
Summary of the method: as §1

[19] = biological target: Fuc(a1-3)[Gal(b1-4)]GlcNAc(b1-2)Man
Summary of the method: as §1

[20] = biological target: Fuc(a1-3)[Gal(b1-4)]GlcNAc(b1-2)Man(a1-3)[Fuc(a1-3)[Gal(b1-4)]GlcNAc(b1-2)Man(a1-6)]Man(b1-4)GlcNAc(b1-4)GlcNAc
Summary of the method: as §1

[21] = biological target: Fuc(a1-3)[Gal(b1-4)]GlcNAc(b1-2)Man(a1-3)[Fuc(a1-3)[Gal(b1-4)]GlcNAc(b1-2)Man(a1-6)]Man(b1-4)GlcNAc(b1-4)[Fuc(a1-6)]GlcNAc
Summary of the method: as §1

[22] = biological target: Fuc(a1-3)[Gal(b1-4)]GlcNAc(b1-3)Gal(b1-3)[Fuc(a1-4)]GlcNAc
Summary of the method: as §1

[23] = biological target: Fuc(a1-3)[Gal(b1-4)]GlcNAc(b1-3)Gal(b1-4)[Fuc(a1-3)]GlcNAc
Summary of the method: as §1

[24] = biological target: Fuc(a1-3)[Gal(b1-4)]GlcNAc(b1-3)Gal(b1-4)[Fuc(a1-3)]GlcNAc(b1-3)Gal(b1-4)[Fuc(a1-3)]GlcNAc
Summary of the method: as §1

[25] = biological target: Fuc(a1-3)[Gal(b1-4)]GlcNAc(b1-3)GalNAc
Summary of the method: as §1

[26] = biological target: Fuc(a1-3)[Gal(b1-4)]GlcNAc(b1-6)GalNAc
Summary of the method: as §1

[27] = biological target: Fuc(a1-3)[Gal(b1-4)]GlcNAc(b1-6)[Gal(b1-3)GlcNAc(b1-3)]Gal(b1-4)Glc
Summary of the method: as §1

[28] = biological target: Fuc(a1-3)[Gal(b1-4)]GlcNAc6S
Summary of the method: as §1

[29] = biological target: Fuc(a1-3)[Gal3S(b1-4)]Glc
Summary of the method: as §1

[30] = biological target: Fuc(a1-3)[Gal3S(b1-4)]GlcNAc
Summary of the method: as §1

[31] = biological target: Fuc(a1-3)[Gal3S(b1-4)]GlcNAc6S
Summary of the method: as §1

[32] = biological target: Fuc(a1-3)[GalNAc(b1-4)]GlcNAc
Summary of the method: as §1

[33] = biological target: Fuc(a1-3)[GalNAc(b1-4)]GlcNAc6S
Summary of the method: as §1

Fuc(a1-4)GlcNAc = biological target: Fuc(a1-4)GlcNAc
Summary of the method: as §1

Fuc(b1-3)GlcNAc = biological target: Fuc(b1-3)GlcNAc
Summary of the method: as §1

Gal(a1-2)Gal = biological target: Gal(a1-2)Gal
Summary of the method: as §1

B1: MGL2 (Mus musculus), Q8JZN1 (protein)
chain: MTMRYENFQNLEREEKNQEMRNGDKKGGMESPKFALIPSQSFLWRILSWTHLLLFSLGLSLLLLVVISVIGSQNSQLRRDLGTLRAILDNTTSKIKAEFQSLDSRADNFEKGISSLKVDVEDHRQELQAGRDLSQKVTSLESTLEKREQALKTDLSDLTDHVQQLETDLKALTCQLANLKNNGSEVACCPLHWTEHEGSCYWFSESEKSWPEADKYCRLENSHLVVVNSLEEQNFLQNRLANVLSWMGLTDQNGPWRWVDGTDFDKGFKNWRPLQPDNWHGHMLGGGEDCAHFSYDGRWNDDVCQRHYHWICETELGKASSAHSPQLIASVP
glycan array binding signal (z-score) [1]: -0.269 | glycan array binding signal (z-score) [2]: -0.034 | glycan array binding signal (z-score) [3]: -0.15 | glycan array binding signal (z-score) [4]: -0.032 | glycan array binding signal (z-score) [5]: -0.314 | glycan array binding signal (z-score) [6]: -0.329 | glycan array binding signal (z-score) [7]: -0.211 | glycan array binding signal (z-score) [8]: -0.224 | glycan array binding signal (z-score) [9]: -0.012 | glycan array binding signal (z-score) [10]: -0.156 | glycan array binding signal (z-score) [11]: -0.19 | glycan array binding signal (z-score) [12]: 0.469 | glycan array binding signal (z-score) [13]: -0.204 | glycan array binding signal (z-score) [14]: -0.156 | glycan array binding signal (z-score) [15]: 0.748 | glycan array binding signal (z-score) [16]: 12.2 | glycan array binding signal (z-score) (Fuc(a1-3)GlcNAc): -0.198 | glycan array binding signal (z-score) [17]: -0.012 | glycan array binding signal (z-score) [18]: -0.25 | glycan array binding signal (z-score) [19]: -0.064 | glycan array binding signal (z-score) [20]: -0.17 | glycan array binding signal (z-score) [21]: -0.28 | glycan array binding signal (z-score) [22]: -0.046 | glycan array binding signal (z-score) [23]: -0.202 | glycan array binding signal (z-score) [24]: -0.217 | glycan array binding signal (z-score) [25]: -0.203 | glycan array binding signal (z-score) [26]: -0.12 | glycan array binding signal (z-score) [27]: -0.15 | glycan array binding signal (z-score) [28]: -0.113 | glycan array binding signal (z-score) [29]: -0.218 | glycan array binding signal (z-score) [30]: -0.187 | glycan array binding signal (z-score) [31]: -0.185 | glycan array binding signal (z-score) [32]: 0.6 | glycan array binding signal (z-score) [33]: 0.036 | glycan array binding signal (z-score) (Fuc(a1-4)GlcNAc): 0.024 | glycan array binding signal (z-score) (Fuc(b1-3)GlcNAc): -0.225 | glycan array binding signal (z-score) (Gal(a1-2)Gal): -0.276

Source: the supplement of paper PMC8728848
